Each structure is given as a SMILES string. Among all 48,000 compounds or so, about 450 (0.94%) were called active. Inconclusive results (about 19%) are left out. Calls follow the shape of the dose curve; as a rule, active = well fitted inhibition curve with a large enough effect; inconclusive = small, poorly fitted or top-dose-only effect; inactive = no such curve, though single readings can be large or run the other way. The list shows a part of the results.

Experimental findings from PubChem BioAssay AID1508623 (National Center for Advancing Translational Sciences (NCATS), 2021) are described below.

The nature of the test: Primary qHTS for Identification of Small Molecule Inhibitors of Huntingtin Promoter Activity. Also: nearly all actives have a fitted effect of over 50% in size. The following applies: HEK293 HTT promoter firefly luciferase reporter (activity 0% = vehicle and -100% = no light), 24 h; series mostly up to 57.5 µM; activity change, negative = inhibition: at the top concentration. The procedure, abridged:
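HEK293 Fluc reporter, 2,500 cells/well, 24 h pre-culture; cpds up to 57.5 uM final, 24 h 37 degrees C; Dual-Glo, 10 min RT; normalized vehicle = 0%, zero RLU = -100%.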
For `CCn1c(=N)c(C(=O)NC2CCCC2)cc2c(=O)n3cc(C)ccc3nc21`, the “activity change, negative = inhibition” value was inactive: 18.2%.

As to `Cc1ccc(OCCCCn2nnc3sc4c(c3c2=O)CCC(C)C4)cc1` (configuration not stated), the “activity change, negative = inhibition” value was inactive: 13.3%.

On to `Cc1ccc(NC(=O)C2CCCN(S(=O)(=O)c3cccc4nsnc34)C2)c(C)c1` (configuration not stated), for which the “activity change, negative = inhibition” value is inactive: -14.7%.

As to `CCOc1ccc(C(=O)NCCc2csc(-c3cccnc3)n2)cc1`, the “activity change, negative = inhibition” value was inactive: -8.15%.

In the case of `Cc1ccc(Cl)cc1Nc1nn2c(=O)c3ccc(C(=O)NC4CCC(C)CC4)cc3nc2s1` (configuration not stated), the “activity change, negative = inhibition” value is inactive: -6.18%.

For the molecule `CN1CCN(C2(CNC(=O)COc3ccc(C(C)(C)C)cc3)CCCCC2)CC1`, the “activity change, negative = inhibition” value was inactive: -24.1%.

As for `O=C(Cn1c(=O)n(-c2ccc(F)c(Cl)c2)c(=O)c2sc3ccccc3c21)NC1CCCCC1`, the “activity change, negative = inhibition” value is inactive: -6%.

With `COc1cc(C[C@@H](CO)[C@H](CO)Cc2ccc(O)c(OC)c2)ccc1O`, the “activity change, negative = inhibition” value was inactive: 355%.

In the case of `CC(C)c1ccc(CNCCSc2nnnn2-c2ccccc2)cc1`, the “activity change, negative = inhibition” value was inactive: -19%.

Consider `CCc1ccc(NC(=O)Cn2c(=O)n(CCC(=O)NCCc3ccc(OC)c(OC)c3)c(=O)c3ccccc32)cc1`, for which the “activity change, negative = inhibition” value was inactive: -10.9%.

As to `Cc1cc(C)cc(NC(=O)C2CCN(c3nc4ccccc4nc3C(F)(F)F)CC2)c1`, the “activity change, negative = inhibition” value is inactive: -14.4%.

On to `Cc1ccc2c(=O)cc(C(=O)Nc3sc4c(c3C(=O)NCc3ccccc3)CCCC4)oc2c1C`, for which the “activity change, negative = inhibition” value was inactive: 6.11%.

Consider `CCCCCCOc1ccc(C2C(=O)N(C3CCCCC3)CC(=O)N2CCCC)cc1` (configuration not stated), for which the “activity change, negative = inhibition” value was inactive: -15.7%.

Consider `CCOc1cccc(C(=O)Nc2cc(-c3ccc(C)cc3)no2)c1`, for which the “activity change, negative = inhibition” value was inactive: 15.5%.

Turning to `Cc1noc(Cn2c(=O)c3cc4c(cc3n(CC(=O)Nc3ccccc3Br)c2=O)OCO4)n1`, the “activity change, negative = inhibition” value is inactive: -11.4%.

For the molecule `O=C(Nc1sc2c(c1C(=O)N1CCCCC1)CCCC2)c1ccccc1Cl`, the “activity change, negative = inhibition” value was inactive: -21.6%.

In the case of `CN(C)c1ccc(CNC(=O)CCS(=O)(=O)c2ccc3c(c2)oc(=O)n3C)cc1`, the “activity change, negative = inhibition” value was inactive: -2.62%.

`CCCS(=O)(=O)N1CCCC(C(=O)NCCOC)C1` (configuration not stated): the “activity change, negative = inhibition” value is inactive: -17.2%.

In the case of `CCOc1ccc(NCc2cccn2-c2nnc(N3CCC(C(=O)NCCOC)CC3)s2)cc1`, the “activity change, negative = inhibition” value was inactive: -25.9%.

For the molecule `C=C(C)Cn1c(=O)c2c(nc3n2CCN3c2ccc(F)cc2)n(C)c1=O`, the “activity change, negative = inhibition” value is inactive: 4.61%.

For the molecule `Cc1cc(=O)n2nc(N3CCC(C(=O)NCc4ccc(F)cc4)CC3)sc2n1`, the “activity change, negative = inhibition” value is inactive: -8.21%.

Take `COc1ccccc1/C=C/c1nc(C#N)c(NCCc2ccccc2)o1`: the “activity change, negative = inhibition” value was inactive: -10.5%.

For `CCOc1ccc(-c2nc(Cn3ccn4nc(-c5ccc(OCC)c(Cl)c5)cc4c3=O)c(C)o2)cc1`, the “activity change, negative = inhibition” value is inactive: -8.33%.

For the molecule `Cc1ccccc1Nc1cc(C(=O)NCc2cccs2)c2ccccc2n1`, the “activity change, negative = inhibition” value is inactive: 19.8%.

Regarding `COc1ccc(C)cc1N(C)C(=O)c1c2c(nc3ccccc13)C(=O)N(C1CCCCC1)C2`, the “activity change, negative = inhibition” value is inactive: -27.5%.

As for `Cc1cccc(OCCn2c(SCC(=O)O)nc3ccccc32)c1`, the “activity change, negative = inhibition” value was inactive: -9.38%.

In the case of `COc1ccc(-c2nc3scc(CCNS(=O)(=O)c4ccc(NC(C)=O)cc4)n3n2)cc1`, the “activity change, negative = inhibition” value was inactive: -24.5%.
